# The campaign covered roughly 39,000 compounds. About 220 (0.56%) showed activity. The list shows a part of the results.
# System: Escherichia coli K-12 BW25113
# Assay: relative growth (OD600 normalised to plate interquartile mean) (fraction); higher = less growth inhibition, active = 0.2 or less
# Conditions: 50 µM; LB; incubation time: overnight (16-24 h)
# 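Also: static incubation at 37 °C against the wild-type strain, values averaged over two biological replicates.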
row,Structure (SMILES),relative growth
1,CS(=O)(=O)NC[C@@H]1OC[C@@H]2CCN(C(=O)c3ccnnc3)C[C@@H]21,inactive: 1.02
2,C[C@H](CO)N1C[C@H](C)[C@@H](CN(C)Cc2ccc(Oc3ccccc3)cc2)Oc2ncc(-c3cccnc3)cc2C1=O,inactive: 1.01
3,CO[C@H]1CN(C)C(=O)c2ccc(NS(C)(=O)=O)cc2OC[C@@H](C)N(S(C)(=O)=O)C[C@@H]1C,inactive: 1.03
4,C[C@H]1CN([C@@H](C)CO)C(=O)Cc2cc(NS(=O)(=O)c3cccs3)ccc2O[C@H]1CN(C)Cc1ccc(Cl)c(Cl)c1,inactive: 1.01
5,C[C@@H]1CN([C@H](C)CO)C(=O)c2cc(NS(=O)(=O)c3ccccc3)ccc2O[C@@H]1CN(C)S(C)(=O)=O,inactive: 0.996
6,COc1ccc(S(=O)(=O)N(C)C[C@H]2OCCCC[C@H](C)Oc3ccc(NC(=O)CCC(F)(F)F)cc3C(=O)N([C@H](C)CO)C[C@@H]2C)cc1,inactive: 0.997
7,CO[C@@H](CN(C)C(=O)c1ccc2c(c1)OCO2)[C@H](C)CN([C@@H](C)CO)S(=O)(=O)c1ccc(C)cc1,inactive: 1.01
8,CN1CCN(C(=O)C[C@H]2CC[C@@H]3[C@@H](COc4ccc(NC(=O)c5ccc(F)c(F)c5)cc4C(=O)N3C)O2)CC1,inactive: 1.01
9,C[C@@H]1CN([C@@H](C)CO)C(=O)c2cc(NC(=O)C3CCCCC3)ccc2O[C@@H](C)CCCCO[C@@H]1CN(C)C(=O)CCC(F)(F)F,inactive: 0.988
10,CCSC(=N)N,inactive: 0.964
11,CC[C@@H](C)[C@H]1O[C@@]2(CC[C@@H]1C)C[C@H]1C[C@@H](CC=C(C)[C@@H](O[C@H]3C[C@@H](OC)[C@@H](O[C@H]4C[C@@H](OC)[C@@H](O)[C@@H](C)O4)[C@@H](C)O3)[C@@H](C)C=CC=C3CO[C@H]4[C@@H](O)C(C)=C[C@@H](C(=O)O1)[C@]34O)O2.CO[C@H]1C[C@@H](O[C@@H]2[C@@H](OC)C[C@@H](O[C@@H]3C(C)=CC[C@@H]4C[C@@H](C[C@@]5(CC[C@@H](C)[C@H](C(C)C)O5)O4)OC(=O)[C@@H]4C=C(C)[C@H](O)[C@@H]5OCC(=CC=C[C@@H]3C)[C@@]45O)O[C@@H]2C)O[C@@H](C)[C@@H]1O,inactive: 1
12,COc1ccc(NC(=O)N(C)C[C@H]2OCc3ccccc3-c3c(n(C)c4ccccc34)C(=O)N([C@@H](C)CO)C[C@@H]2C)cc1,inactive: 0.992
13,CCOC(=O)CC1=NC(=O)CS1,inactive: 1
14,C[C@@H]1CN([C@@H](C)CO)C(=O)c2cccc(NS(C)(=O)=O)c2O[C@@H]1CN(C)C(=O)Nc1ccccc1,inactive: 1.01
15,C[C@H](CO)N1C[C@H](C)[C@@H](CN(C)Cc2ccc3c(c2)OCO3)OCCCC[C@H](C)Oc2ccc(NC(=O)Nc3cccc4ccccc34)cc2C1=O,inactive: 1.03
16,C[C@H](CO)N1C[C@H](C)[C@@H](CN(C)C(=O)C2CCCCC2)Oc2cc(Br)ccc2S1(=O)=O,inactive: 0.999
17,O=c1[nH]cc(N2CCCCC2)c(=O)[nH]1,inactive: 1
18,CC(C)(C)[S@](=O)N1Cc2cc(C(=O)N[C@H]3CCN(Cc4ccccc4)C3)nc(-c3cccc(-c4cccnc4)c3)c2[C@@H]1CCO,inactive: 1.03
19,COc1ccc(S(=O)(=O)Nc2ccc3c(c2)CC(=O)N([C@H](C)CO)C[C@@H](C)[C@H](CN(C)Cc2ccc(Cl)c(Cl)c2)O3)cc1,inactive: 0.971

row,Structure (SMILES),relative growth
1,CCCN(C)C[C@H]1OCCCC[C@@H](C)Oc2ccc(NC(=O)Nc3ccccc3)cc2C(=O)N([C@H](C)CO)C[C@@H]1C,inactive: 0.989
2,CO[C@@H]1CN(C)C(=O)c2cc(NS(=O)(=O)c3ccccc3F)ccc2OC[C@@H](C)N(S(C)(=O)=O)C[C@H]1C,inactive: 0.991
3,CC(=O)c1ccc(S(=O)(=O)NC(=O)NC2CCCCC2)cc1,inactive: 1.03
4,O=C(C[C@H]1CC=CC[C@H](Cc2ccc(F)cc2)C(=O)OC[C@H](Cc2c[nH]c3ccccc23)NC1=O)NCCO,inactive: 1.01
5,O=C(c1ccc(S(=O)(=O)N2CCCCCC2)cc1)N(Cc1cccnc1)c1nc2c(F)cc(F)cc2s1,inactive: 0.994
6,Cc1noc(C)c1S(=O)(=O)N(C)C[C@@H]1Oc2c(NS(C)(=O)=O)cccc2C(=O)N([C@@H](C)CO)C[C@H]1C,inactive: 1.01
7,CC(=O)n1cc([C@H]2C=C(C(=O)N3CCN(C)CC3)O[C@@H](OCc3ccc(CO)cc3)C2)c2ccccc21,inactive: 1
8,CCS(=O)(=O)Nc1ccc2c(c1)C(=O)N(C)C[C@@H](OC)[C@@H](C)CN(Cc1nccs1)[C@H](C)CO2,inactive: 1
9,C[C@@H]1CN([C@@H](C)CO)C(=O)Cc2cc(NC(=O)Cn3cnnn3)ccc2O[C@@H]1CN(C)Cc1ccc(C(F)(F)F)cc1,inactive: 0.97
10,C[C@H](CO)N1C[C@H](C)[C@@H](CN(C)Cc2ccc(C(=O)Nc3ccccc3N)cc2)Oc2c(NC(=O)c3nc4ccccc4s3)cccc2C1=O,inactive: 1.02
11,C[C@@H]1CCCCO[C@H](CN(C)CC2CCCCC2)[C@H](C)CN([C@@H](C)CO)C(=O)c2cc(NC(=O)C3CCCCC3)ccc2O1,inactive: 0.979
12,COc1ccc(NC(=O)Nc2ccc3c(c2)C(=O)N([C@@H](C)CO)C[C@@H](C)[C@H](CN(C)CC2CC2)OCCCC[C@@H](C)O3)cc1,inactive: 0.945
13,C[C@H]1CCCCO[C@H](CN(C)S(=O)(=O)c2ccc(Cl)cc2)[C@@H](C)CN([C@@H](C)CO)C(=O)c2cc(NC(=O)Nc3ccc(C(F)(F)F)cc3)ccc2O1,inactive: 1.04
14,C[C@@H]1CN([C@@H](C)CO)C(=O)c2c(c3ccccc3n2C)-c2ccccc2CO[C@H]1CN(C)C(=O)Nc1cccc(C(F)(F)F)c1,inactive: 1.03
15,C[C@H](CO)N1C[C@H](C)[C@@H](CN(C)Cc2ccc3c(c2)OCO3)Oc2ccc(NS(=O)(=O)c3cn(C)cn3)cc2CC1=O,inactive: 1.01
16,C[C@@H]1CCCCO[C@@H](CN(C)C(=O)Nc2ccc(C(F)(F)F)cc2)[C@H](C)CN([C@H](C)CO)C(=O)c2cc(NC(=O)Nc3cccc4ccccc34)ccc2O1,inactive: 0.973
17,CC1(C)C[C@H](n2[nH]c(=O)cc2N)CCO1,inactive: 0.983
18,C[C@@H]1CN([C@H](C)CO)C(=O)Cc2cc(NC(=O)Nc3ccc(C(F)(F)F)cc3)ccc2O[C@H]1CN(C)Cc1ccncc1,inactive: 1.02
19,Cc1noc(C)c1S(=O)(=O)Nc1ccc2c(c1)C(=O)N([C@@H](C)CO)C[C@H](C)[C@H](CN(C)S(=O)(=O)c1cn(C)cn1)OCCCC[C@H](C)O2,inactive: 0.988

row,Structure (SMILES),relative growth
1,COc1cccc(S(=O)(=O)N[C@@H]2CC[C@@H](CC(=O)NC3CCC3)O[C@@H]2CO)c1,inactive: 1.01
2,C[C@H](CO)N1C[C@H](C)[C@H](CN(C)CC2CC2)OCCCC[C@H](C)Oc2ccc(NS(=O)(=O)c3cn(C)cn3)cc2C1=O,inactive: 1
3,OCc1cccc(CO)n1,inactive: 0.983
4,Cc1ccc(-c2ccc3c(c2)O[C@@H](CN(C)Cc2cncnc2)[C@H](C)CN([C@H](C)CO)S3(=O)=O)cc1,inactive: 1.01
5,C[C@@H]1CCCCO[C@@H](CN(C)C(=O)Nc2cccc3ccccc23)[C@H](C)CN([C@@H](C)CO)C(=O)c2cc(NS(=O)(=O)c3cn(C)cn3)ccc2O1,inactive: 0.99
6,C[C@@H]1CN([C@@H](C)CO)C(=O)c2cc(NS(C)(=O)=O)ccc2O[C@@H](C)CCCCO[C@H]1CN(C)C(=O)CCCN(C)C,inactive: 1.02
7,Cc1ccc(S(=O)(=O)Nc2ccc3c(c2)C(=O)N([C@@H](C)CO)C[C@@H](C)[C@H](CN(C)C(=O)CCC(F)(F)F)OCCCC[C@H](C)O3)cc1,inactive: 0.979
8,C[C@@H]1CN([C@H](C)CO)C(=O)Cc2cc(NC(=O)Nc3ccc(F)cc3)ccc2O[C@H]1CN(C)Cc1ccc(Cl)c(Cl)c1,inactive: 1.02
9,CCS(=O)(=O)N1Cc2cc(C(=O)NCCOC)nc(-c3cccc(-c4ccncc4)c3)c2[C@H]1CCO,inactive: 1.01
10,C[C@H]1CN([C@@H](C)CO)C(=O)c2cc(NC(=O)CCC(F)(F)F)ccc2O[C@H]1CN(C)C(=O)Nc1ccc(C(F)(F)F)cc1,inactive: 0.976
11,C[C@H](CO)N1C[C@H](C)[C@@H](CN(C)S(=O)(=O)c2ccc(Cl)cc2)Oc2ccc(NC(=O)CCN3CCOCC3)cc2C1=O,inactive: 0.997
12,C[C@H](CO)N1C[C@H](C)[C@@H](CN(C)S(=O)(=O)c2ccccc2)Oc2c(NS(=O)(=O)c3ccc(F)cc3)cccc2C1=O,inactive: 1
13,CC(C)NC(=O)Nc1ccc2c(c1)C(=O)N([C@H](C)CO)C[C@@H](C)[C@H](CN(C)Cc1ccc(C(F)(F)F)cc1)OCCCC[C@@H](C)O2,inactive: 1.02
14,COc1ccc(S(=O)(=O)N(C)C[C@H]2Oc3ccc(NC(=O)NC(C)C)cc3C(=O)N([C@H](C)CO)C[C@@H]2C)cc1,inactive: 1.01
15,C[C@H]1CN([C@@H](C)CO)C(=O)c2cccc(N(C)C)c2O[C@H]1CN(C)S(C)(=O)=O,inactive: 0.995
16,C[C@@H]1CN([C@H](C)CO)C(=O)Cc2cc(NC(=O)Nc3ccccc3)ccc2O[C@H]1CN(C)S(=O)(=O)c1cn(C)cn1,inactive: 0.984
17,C[C@H]1CN([C@@H](C)CO)S(=O)(=O)c2ccc(C#CC3CCCCC3)cc2O[C@@H]1CN(C)C(=O)Cc1ccncc1,inactive: 1
18,C[C@@H]1CC[C@]2(C(=O)O[C@@H]3O[C@H](CO)[C@@H](O)[C@H](O)[C@H]3O)CC[C@]3(C)C(=CC[C@H]4[C@@]5(C)C[C@@H](O)[C@H](O)[C@@](C)(CO)[C@@H]5CC[C@]43C)[C@@H]2[C@]1(C)O,inactive: 0.917
